# Measured values from PubChem BioAssay AID1963576 (National Center for Advancing Translational Sciences (NCATS), 2024).
# The whole screen tested about 46,000 compounds, of which about 60 (0.1%) were called active. Not shown: some 3% with an inconclusive outcome. Calls come from the whole dose curve; as a rule, active = well fitted inhibition curve with a large enough effect; inconclusive = small, poorly fitted or top-dose-only effect; inactive = no such curve, though single readings can be large or run the other way. The list shows a part of the results.
# Assay: Primary qHTS assay for Inhibitors of ovarian cancer metastasis using an organotypic tumor microenvironment (TME) model.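 For activity change, negative = inhibition: plate controls were DMSO wells for no effect and tomatine positive control wells for full effect.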 Note: nearly all actives have a fitted effect of over 65% in size.
# Conditions: SKOV3ip1-GFP adhesion/invasion on 3D omental model, fluorescence; series mostly up to 45.8 µM; activity change, negative = inhibition: at the top concentration
# Summary of the method: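 Primary human omental fibroblast/mesothelial 3D culture pre-formed 48 h. SKOV3ip1-GFP cells added with compounds (0.36-46 umol/L), incubated 2 h RT/16 h 37 C, fixed; GFP cells quantified at 488/509 nm.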
SMILES,outcome,"activity change, negative = inhibition"
CC(C)c1ccc(NC(=O)c2ccc(F)c(S(=O)(=O)N3CCc4ccccc4C3)c2)cc1,inactive,
Cc1ccc(CN(C(=O)c2ccccc2F)c2ccccn2)o1,,inactive: 12%
O=C(c1cccn2c(=O)c3cc(Cl)ccc3nc12)N1CCN(c2ccccc2F)CC1,,inactive: 1.97%
Nc1nonc1-c1nc2ccccc2n1Cc1cccc(Cl)c1,,inactive: -0.933%
CCOc1ccc(NC(=O)CC2C(=O)N(c3ccc(C)cc3)C(=O)N2CCC2=CCCCC2)cc1 (stereo unspecified),,inactive: -17.9%
COc1ccc(CCNC(=O)c2c(O)nc3ccccn3c2=O)cc1,,inactive: 11.7%
CCOC(=O)c1ccccc1NC(=O)CSc1nc(=O)[nH]c2c1CCC2,,inactive: 9.8%
CCOc1ccc(C(=O)Nc2cccc(C(=O)OCc3cc(=O)n4nc(C5CC5)sc4n3)c2)cc1,,inactive: 0.649%
COc1ccc(Cl)cc1NC(=O)Cn1cc(C(=O)c2ccc(C)cc2)c(=O)c2ccc(C)nc21,,inactive: 2.7%
Cc1ccc(NC(=O)CCSc2nc(-c3ccco3)cc(C(F)(F)F)n2)cc1F,,inactive: 3.99%
COc1ccc2oc(=O)c(C(=O)Nc3ccc(C(=O)O)cc3)cc2c1,,inactive: 6.32%
Cc1ccn2c(=O)c(C(=O)NCCCN3CCCCC3C)c(O)nc2c1 (stereo unspecified),,inactive: -8.3%
FC(F)(F)Oc1ccc2c(c1)NC(c1ccncc1)=NC(c1cccs1)=N2,,inactive: 3.25%
O=C(COc1ccc(Cl)cc1)Nc1ccc(C(=O)OCc2cc(=O)n3ccsc3n2)cc1,,inactive: 6.74%
C=Cc1ccc(Cn2c(C)c(CNCCc3ccccc3C)c(C(=O)O)c2C)cc1,,inactive: -15.3%
CCOC(=O)N1CCN(Cc2nc3cc(NC(=O)c4ccc(OC)cc4)ccc3n2C(C)C)CC1,,inactive: -17.1%
COc1ccc(OCC(=O)Nc2nnc3n2CCS3)cc1,,inactive: -4.18%
CC(=O)c1ccc(NC(=O)CCCSc2nc(-c3ccco3)cc(C(F)(F)F)n2)cc1,,inactive: -17.1%
CCc1ccc(NC(=O)CSc2nc3ccccc3c(=O)n2CCNC(C)=O)cc1,,inactive: -3.62%
Cc1ccc(NC(=O)C(C)n2nnc3sc4c(c3c2=O)CCCC4)cc1Cl (stereo unspecified),,inactive: -7.32%
C=CC[N+]1([C@H]2C[C@H]3[C@@H]4CC[C@H]5C[C@H](O)[C@@H](N6CCOCC6)C[C@]5(C)[C@@H]4CC[C@]3(C)[C@H]2OC(C)=O)CCCC1,,inactive: -14.1%

SMILES,outcome,"activity change, negative = inhibition"
Cc1c(Cl)cccc1NC(=O)c1ncoc1-c1ccco1,,inactive: -8.08%
Cc1nc(-c2ccccc2)sc1CCNC(=O)C(=O)Nc1ccc2c(c1)OCO2,inactive,
COc1ccccc1NC(=O)CCN1CCCCC1,,inactive: -6%
CCOc1ccc(OCC)c(NC(=O)C2CCN(c3nnc(-n4cccc4)s3)CC2)c1,,inactive: -7.53%
CCOC(=O)c1cccc(Nc2cc(-c3ccccc3)ncn2)c1,,inactive: -8.7%
Cc1ccc(C(C)(O)c2nc3ccccc3s2)c(C)c1 (stereo unspecified),,inactive: -21.3%
CCOC(=O)c1c(C)[nH]c(CCC(=O)NCc2ccccc2Cl)c1C,,inactive: -30%
Cc1c(Cl)cccc1NC(=O)c1ccc2snnc2c1,,inactive: 0.597%
Cc1cccc(C(=O)NCC(=O)OCc2cc(=O)n3nc(C4CCCCC4)sc3n2)c1,,inactive: 4.1%
Cc1cccc(N2CCN(S(=O)(=O)c3ccc4[nH]c5c(c4c3)CCCCC5)CC2)c1C,,inactive: -7.22%
CCOC(=O)c1cccc(NC(=O)CC2C(=O)N(c3ccc(OC)cc3)C(=O)N2C2CCCC2)c1 (stereo unspecified),,inactive: 3.58%
COc1ccc(NC(=O)CCCN2C(=O)CCn3nc(-c4cn(C)c5ccccc45)cc32)cc1OC,,inactive: 6.25%
COc1cccc(OCCSc2nc(C)c(Cc3ccccc3)c(=O)[nH]2)c1,inactive,
Cc1ccc(N(C)C(=O)C2CCN(S(=O)(=O)c3c(C)noc3/C=C/c3c(C)cc(C)cc3C)CC2)cc1,,inactive: -9.34%
CCN(CC)C(=O)Cn1nnc2sc(-c3ccccc3)cc2c1=O,,inactive: 0.317%
COc1cc2c(cc1OC)C(COc1ccc3c(C)cc(=O)oc3c1)N(C(=O)c1cc(Cl)ccc1OC)CC2 (stereo unspecified),,inactive: 2.86%
CCC(=O)N1c2ccc(S(=O)(=O)NCc3ccc(F)cc3)cc2CC1C (stereo unspecified),,inactive: -4.13%
Cc1ccc(CN2CCSc3ccc(C(=O)NCC(C)c4ccccc4)cc32)cc1 (stereo unspecified),,inactive: -21.3%
COC(=O)CN1C(=O)CSc2ccc(S(=O)(=O)Nc3cccc(C)c3C)cc21,inactive,
COc1cccc(NC(=O)C2=C(C)C(=O)OC23CCN(C(C)=O)CC3)c1,,inactive: 17.5%
COc1ccccc1C(=O)Nc1cc2c(cc1N1CCCC1)n(C)c(=O)c(=O)n2C,,inactive: 11.3%

SMILES,outcome,"activity change, negative = inhibition"
Cc1ccc(Cn2cc(S(=O)(=O)c3cccc(Cl)c3)c(=O)c3cc(F)c(N4CCOCC4)cc32)cc1,,inactive: 36.7%
CCOc1ccc(C2NC(=O)c3c(COC)cc(C)nc3N2Cc2ccccc2)cc1OC (stereo unspecified),,inactive: 8.83%
Cc1ccc(NC(=O)Cn2ccn(-c3ccccc3)c(=O)c2=O)cc1,,inactive: -2.72%
CCN(C(=O)CSc1nc2ccccc2[nH]1)c1ccccc1,inactive,
Cc1cc2oc(C(=O)Nc3ccc(S(=O)(=O)Nc4ncccn4)cc3)cc(=O)c2cc1C,,inactive: 1.74%
CCCOc1ccc(CNC(=O)c2ccc(-n3c(C)cc4c3CCC(C)C4)cc2)cc1 (stereo unspecified),,inactive: 2.22%
COc1ccccc1-c1noc(CCC(=O)Nc2ccc(C)cc2C)n1,,inactive: 15.6%
Cc1ccc(NC(=O)C2CCCN(S(=O)(=O)c3cn(C(C)C)cn3)C2)c(C)c1 (stereo unspecified),inactive,
CC1CCC(Nc2nc3c(-c4cccc(C(F)(F)F)c4)nnn3c3ccccc23)CC1 (stereo unspecified),,inactive: 8.04%
Cc1ccc(C)c(N2CCN(C(=O)c3ccc4c(c3)N(Cc3ccc(F)cc3)C(=O)c3ccccc3S4=O)CC2)c1 (stereo unspecified),inactive,
CC(C)OC(=O)c1c(NC(=O)C2c3ccccc3Oc3ccccc32)sc2c1CCCC2,,inactive: -5.2%
COc1cc(OC)c(NC(=O)CCc2c(C)nc3cc(-c4ccccc4OC)nn3c2C)cc1Cl,inactive,
O=C(Nc1cc2c(cc1C(=O)c1ccccc1Cl)OCCO2)c1ccccc1,,inactive: -1.27%
CC(C)c1nn2c(=O)cc(COC(=O)c3ccccc3NC(=O)C3CCCCC3)nc2s1,inactive,
CCc1ccc2oc(C(=O)Nc3cc(C)ccc3C)cc(=O)c2c1,inactive,
CC(=O)c1ccc(Nc2cc(C)nc3nc(Cc4ccc(Cl)cc4)nn23)cc1,inactive,
CN(C)c1ccc(CNC(=O)c2ccccc2NC(=O)c2nsc3ccccc23)cc1,,inactive: -15.9%
CC1Cc2ccccc2N1C(=O)CSc1nnc(-c2ccccc2Cl)o1 (stereo unspecified),,inactive: -1.47%
O=C1CS(=O)(=O)C2(C(=O)N(Cc3ccc(F)cc3)c3ccccc32)N1c1cccc(C(F)(F)F)c1 (stereo unspecified),inactive,
